Among the data in PubChem BioAssay (NCI) are GI50 and TGI values, retold here.

The test system of the assay is NCI-H322M lung. The assay is described as follows: NCI anticancer screen, dose series, 48 h.

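Compound exposure: 48 hours, 5 concentrations, 96-well plates. GI50 marks 50% less growth. TGI denotes the concentration required for complete inhibition of growth.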

Take `COc1ccc(-c2oc3cc(O)cc(O)c3c(=O)c2OC)cc1O`: the GI50 is 12100 nM and the TGI is > 16500 nM.

Consider `CCOP(=O)(OCC)OC[C@]12CC[C@@H](C)[C@H](C)C1C1=CC[C@@H]3[C@@]4(C)CCCNC(C)(C)[C@@H]4CC[C@@]3(C)[C@]1(C)CC2` (some centres undefined), for which the GI50 was 1580 nM and the TGI is 2960 nM.
